Measurements: the supplement of paper PMC4967469
pIC50: −log10 of the molar value. By IC50 is meant the dose at which the fit gives 50% viability; where the fit passes the top or lowest dose, that dose stands as a limit. The AUC spans the tested range (256-fold, ending at the top dose) of the same fit; values near 1 show little effect. Any top dose called inferred was calculated from the reported fits.

How the values were obtained:
FK866 = compound: O=C(/C=C/c1cccnc1)NCCCCC1CCN(C(=O)c2ccccc2)CC1 [FK866]; test: Viability of human cancer cell lines after 72 h of drug (GDSC screen); conditions: top dose 1 µM; top dose inferred
Experimental: (§1)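 Human cancer cell lines in 384-well plates, medium with 10% serum, drug for 72 h over a 256-fold dose range (nine 2-fold or five 4-fold steps up to the top dose). Adherent lines were fixed and stained with the nucleic acid dye Syto60, suspension lines read with resazurin; signal relative to control wells, capped at 0 and 100%. One two-parameter sigmoid per drug and line, fitted in a mixed model over all curves with the slope shared within a line.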

FR-180204 = compound: Nc1[nH]nc2nnc(-c3c(-c4ccccc4)nn4ccccc34)cc12 [FR-180204]; test: as above; conditions: top dose 20 µM; top dose inferred
Experimental: as §1

| Cell Line | AUC (FK866) | pIC50 (FK866) | AUC (FR-180204) | pIC50 (FR-180204) |
| --- | --- | --- | --- | --- |
| KCL-22 (chronic myeloid leukaemia, suspension) | 0.026 | > 8.41 | 0.961 | < 4.70 |
| KE-37 (lymphoblastic leukaemia, suspension) | 0.019 | > 8.41 | 0.971 | < 4.70 |
| KELLY (neuroblastoma, adherent) | 0.024 | > 8.41 | 0.946 | < 4.70 |
| KG-1 (acute myeloid leukaemia, suspension) | 0.046 | > 8.41 | 0.913 | < 4.70 |
| KGN (ovary, adherent) | 0.957 | < 6.00 | 0.971 | < 4.70 |
| KINGS-1 (glioma, adherent) | 0.934 | < 6.00 | 0.979 | < 4.70 |
| KLE (endometrium, adherent) | 0.844 | < 6.00 | 0.909 | < 4.70 |
| KM12 (large intestine, adherent) | 0.79 | 6.31 | 0.951 | < 4.70 |
| KM-H2 (Hodgkin lymphoma, suspension) | 0.08 | > 8.41 | 0.987 | < 4.70 |
| KMH-2 (thyroid, adherent) | 0.98 | < 6.00 | 0.99 | < 4.70 |
| KMOE-2 (acute myeloid leukaemia, suspension) | 0.025 | > 8.41 | 0.985 | < 4.70 |
| KMRC-1 (kidney, adherent) | 0.884 | < 6.00 | 0.987 | < 4.70 |
| KMRC-20 (kidney, adherent) | 0.923 | < 6.00 | 0.989 | < 4.70 |
| KMS-11 (myeloma, suspension) | 0.056 | > 8.41 | 0.95 | < 4.70 |
| KNS-42 (glioma, adherent) | 0.824 | 6.12 | 0.976 | < 4.70 |
| KNS-81-FD (glioma, adherent) | 0.891 | < 6.00 | 0.977 | < 4.70 |
| KON (head and neck, adherent) | 0.282 | 7.82 | 0.987 | < 4.70 |
| KOPN-8 (B-cell leukaemia, suspension) | 0.018 | > 8.41 | 0.956 | < 4.70 |
| KOSC-2 (head and neck, adherent) | 0.124 | > 8.41 | 0.985 | < 4.70 |
| KP-2 (pancreas, adherent) | 0.8 | 6.27 | 0.963 | < 4.70 |
| KP-4 (pancreas, adherent) | 0.393 | 7.49 | 0.987 | < 4.70 |
| KP-N-YN (neuroblastoma, adherent) | 0.039 | > 8.41 | 0.967 | < 4.70 |
| KS-1 (glioma, adherent) | 0.759 | 6.37 | 0.971 | < 4.70 |
| KU812 (chronic myeloid leukaemia, suspension) | 0.15 | 8.23 | 0.988 | < 4.70 |

| Cell Line | AUC (FK866) | pIC50 (FK866) | AUC (FR-180204) | pIC50 (FR-180204) |
| --- | --- | --- | --- | --- |
| KU-19-19 (bladder, adherent) | 0.047 | > 8.41 | 0.987 | < 4.70 |
| KURAMOCHI (ovary, adherent) | 0.792 | 6.27 | 0.958 | < 4.70 |
| KY821 (leukaemia, suspension) | 0.986 | < 6.00 | 0.986 | < 4.70 |
| KYAE-1 (oesophagus, suspension) | 0.204 | 8.13 | 0.928 | < 4.70 |
| KYM-1 (rhabdomyosarcoma, adherent) | 0.124 | 8.29 | 0.991 | < 4.70 |
| KYSE-50 (oesophagus, adherent) | 0.989 | < 6.00 | 0.976 | < 4.70 |
| KYSE-70 (oesophagus, adherent) | 0.429 | 7.41 | 0.983 | < 4.70 |
| KYSE-180 (oesophagus, adherent) | 0.138 | 8.31 | 0.987 | < 4.70 |
| KYSE-220 (oesophagus, adherent) | 0.089 | > 8.41 | 0.945 | < 4.70 |
| KYSE-270 (oesophagus, adherent) | 0.021 | > 8.41 | 0.96 | < 4.70 |
| KYSE-450 (oesophagus, adherent) | 0.973 | < 6.00 | 0.988 | < 4.70 |
| KYSE-510 (oesophagus, adherent) | 0.076 | > 8.41 | 0.986 | < 4.70 |
| KYSE-520 (oesophagus, adherent) | 0.696 | 6.57 | 0.982 | < 4.70 |
| L-363 (myeloma, suspension) | 0.241 | 7.90 | 0.985 | < 4.70 |
| L-428 (Hodgkin lymphoma, suspension) | 0.126 | 8.30 | 0.993 | < 4.70 |
| L-540 (Hodgkin lymphoma, suspension) | 0.07 | > 8.41 | 0.982 | < 4.70 |
| L-1236 (Hodgkin lymphoma, suspension) | 0.181 | 8.07 | 0.988 | < 4.70 |
| LAMA-84 (chronic myeloid leukaemia, suspension) | 0.964 | < 6.00 | 0.834 | 4.88 |
| LAN-6 (neuroblastoma, adherent) | 0.64 | 6.78 | 0.962 | < 4.70 |
| LB373-MEL-D (melanoma, adherent) | 0.907 | < 6.00 | 0.98 | < 4.70 |
| LB771-HNC (head and neck, adherent) | 0.632 | 6.80 | 0.968 | < 4.70 |
| LB831-BLC (bladder, adherent) | 0.744 | 6.50 | 0.981 | < 4.70 |
| LB996-RCC (kidney, adherent) | 0.905 | < 6.00 | 0.978 | < 4.70 |
| LB1047-RCC (kidney, adherent) | 0.528 | 7.12 | 0.974 | < 4.70 |

| Cell Line | AUC (FK866) | pIC50 (FK866) | AUC (FR-180204) | pIC50 (FR-180204) |
| --- | --- | --- | --- | --- |
| LB2241-RCC (kidney, adherent) | 0.414 | 7.45 | 0.977 | < 4.70 |
| LB2518-MEL (melanoma, adherent) | 0.983 | < 6.00 | 0.983 | < 4.70 |
| LC4-1 (lymphoblastic leukaemia, suspension) | 0.045 | > 8.41 | 0.959 | < 4.70 |
| LC-1-sq (lung squamous cell carcinoma, adherent) | 0.911 | < 6.00 | 0.985 | < 4.70 |
| LC-2-ad (lung adenocarcinoma, adherent) | 0.884 | < 6.00 | 0.941 | < 4.70 |
| LCLC-97TM1 (large cell lung carcinoma, adherent) | 0.832 | 6.14 | 0.949 | < 4.70 |
| LCLC-103H (large cell lung carcinoma, adherent) | 0.775 | 6.44 | 0.983 | < 4.70 |
| LN-18 (glioma, adherent) | 0.48 | 7.25 | 0.994 | < 4.70 |
| LN-229 (glioma, adherent) | 0.297 | 7.77 | 0.971 | < 4.70 |
| LN-405 (glioma, adherent) | 0.605 | 6.88 | 0.978 | < 4.70 |
| LNCaP-Clone-FGC (prostate, adherent) | 0.956 | < 6.00 | 0.96 | < 4.70 |
| LNZTA3WT4 (glioma, adherent) | 0.331 | 7.67 | 0.978 | < 4.70 |
| LOU-NH91 (lung squamous cell carcinoma, adherent) | 0.938 | < 6.00 | 0.978 | < 4.70 |
| LOUCY (T-cell lymphoblastic leukaemia, suspension) | 0.018 | > 8.41 | 0.99 | < 4.70 |
| LOXIMVI (melanoma, semi-adherent) | 0.255 | 7.86 | 0.984 | < 4.70 |
| LP-1 (myeloma, suspension) | 0.137 | 8.21 | 0.964 | < 4.70 |
| LS-123 (large intestine, adherent) | 0.731 | 6.44 | 0.961 | < 4.70 |
| LS-180 (large intestine, adherent) | 0.551 | 7.06 | 0.98 | < 4.70 |
| LS-411N (large intestine, adherent) | 0.285 | 7.88 | 0.928 | < 4.70 |
| LS-513 (large intestine, adherent) | 0.839 | 6.14 | 0.936 | < 4.70 |
| LS-1034 (large intestine, adherent) | 0.825 | 6.16 | 0.955 | < 4.70 |
| LU-65 (large cell lung carcinoma, suspension) | 0.852 | < 6.00 | 0.97 | < 4.70 |
| LU-99A (large cell lung carcinoma, adherent) | 0.073 | > 8.41 | 0.979 | < 4.70 |
| LU-134-A (small cell lung carcinoma, suspension) | 0.281 | 7.84 | 0.985 | < 4.70 |
